In publication PMC12820563, “FoxP3 forms a head-to-head dimer in vivo and stabilizes its multimerization on adjacent microsatellites” one finds binding signal data, which are given here for 40 sequences.

This is one part of the list.

The test concerns the target T1, MBP-FoxP1dN (Mus musculus, UniProt P58462 326-579).
T1 sequence: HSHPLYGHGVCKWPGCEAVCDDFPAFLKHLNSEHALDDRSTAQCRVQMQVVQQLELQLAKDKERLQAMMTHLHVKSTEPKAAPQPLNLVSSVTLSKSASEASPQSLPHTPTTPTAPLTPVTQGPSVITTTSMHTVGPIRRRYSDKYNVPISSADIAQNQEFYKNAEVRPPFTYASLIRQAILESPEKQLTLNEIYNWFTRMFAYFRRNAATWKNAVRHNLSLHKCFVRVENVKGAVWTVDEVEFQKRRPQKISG
Nature of the test: PD-seq (MBP pull-down with sequencing); 20 mM Tris-HCl pH 7.5, 100 mM NaCl, 1.5 mM MgCl2, 0.4 uM protein, 0.1 uM dsDNA library, 30 min, room temperature, amylose pull-down; high values mean tight binding. As to conditions: protein: recombinant; tags: His6-MBP; chain copies: 2; dsDNA, one strand shown. In a few lines:
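E. coli-expressed mouse FoxP3 or FoxP1 fragment, N-terminus removed and tagged with His6-MBP, was used at 0.4 µM against 0.1 µM of a Klenow-filled degenerate double-stranded DNA library. After 30 min at room temperature in Tris pH 7.5 buffer with NaCl and MgCl2, complexes were pulled down on amylose resin and washed three times. Binding is pull-down over input reads-per-million enrichment from pooled replicates of the proteinase K-released, PCR-barcoded, Illumina-sequenced DNA.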
For “GATGATTGTTCTCCCAGCTGATGAATTTGTAGATTCGAGTAAACAAATTTTCCTAATCTTTCTGTTCAAGCGCCATCTAC”, the binding signal was 1.09 RPM ratio (pull-down/input). In the case of “GATGATTGTTCTCCCAGCTGATGAATTGCAAACTTCGAGTAAACAAATTTTCCTAATCTTTCTGTTCAAGCGCCATCTAC” it was 1.39 RPM ratio (pull-down/input). In the case of “GATGATTGTTCTCCCAGCTGATGAATTTGACGCGTCGAGTAAACAAATTTTCCTAATCTTTCTGTTCAAGCGCCATCTAC” it was 1.01 RPM ratio (pull-down/input); in that of “GATGATTGTTCTCCCAGCTGATGAATTTGGGCCCTCGAGTAAACAAATTTTCCTAATCTTTCTGTTCAAGCGCCATCTAC”, 0.765 RPM ratio (pull-down/input). With “GATGATTGTTCTCCCAGCTGATGAATTATGCTTCTCGAGTAAACAAATTTTCCTAATCTTTCTGTTCAAGCGCCATCTAC”, the binding signal was 1.08 RPM ratio (pull-down/input). As for “GATGATTGTTCTCCCAGCTGATGAATTCGGATTGTCGAGTAAACAAATTTTCCTAATCTTTCTGTTCAAGCGCCATCTAC”, the figure is 0.938 RPM ratio (pull-down/input); as for “GATGATTGTTCTCCCAGCTGATGAATTAACCTTCTCGAGTAAACAAATTTTCCTAATCTTTCTGTTCAAGCGCCATCTAC”, 0.828 RPM ratio (pull-down/input); as for “GATGATTGTTCTCCCAGCTGATGAATTCTCGAGGTCGAGTAAACAAATTTTCCTAATCTTTCTGTTCAAGCGCCATCTAC”, 0.777 RPM ratio (pull-down/input). On to “GATGATTGTTCTCCCAGCTGATGAATTCATCGGGTCGAGTAAACAAATTTTCCTAATCTTTCTGTTCAAGCGCCATCTAC”, for which the binding signal was 0.795 RPM ratio (pull-down/input). As for “GATGATTGTTCTCCCAGCTGATGAATTCCGCTTATCGAGTAAACAAATTTTCCTAATCTTTCTGTTCAAGCGCCATCTAC”, the figure is 0.95 RPM ratio (pull-down/input). For the sequence “GATGATTGTTCTCCCAGCTGATGAATTTGAACGATCGAGTAAACAAATTTTCCTAATCTTTCTGTTCAAGCGCCATCTAC”, the binding signal is 0.846 RPM ratio (pull-down/input).

Take “GATGATTGTTCTCCCAGCTGATGAATTGGTTAGCTCGAGTAAACAAATTTTCCTAATCTTTCTGTTCAAGCGCCATCTAC”: the binding signal is 0.936 RPM ratio (pull-down/input).

For “GATGATTGTTCTCCCAGCTGATGAATTTCGCGCTTCGAGTAAACAAATTTTCCTAATCTTTCTGTTCAAGCGCCATCTAC”, the binding signal was 0.904 RPM ratio (pull-down/input). As for “GATGATTGTTCTCCCAGCTGATGAATTTATGAGGTCGAGTAAACAAATTTTCCTAATCTTTCTGTTCAAGCGCCATCTAC”, the figure is 0.982 RPM ratio (pull-down/input); as for “GATGATTGTTCTCCCAGCTGATGAATTATTGGAGTCGAGTAAACAAATTTTCCTAATCTTTCTGTTCAAGCGCCATCTAC”, 0.967 RPM ratio (pull-down/input); as for “GATGATTGTTCTCCCAGCTGATGAATTTTCTCCCTCGAGTAAACAAATTTTCCTAATCTTTCTGTTCAAGCGCCATCTAC”, 0.95 RPM ratio (pull-down/input). In the case of “GATGATTGTTCTCCCAGCTGATGAATTTGTTGGCTCGAGTAAACAAATTTTCCTAATCTTTCTGTTCAAGCGCCATCTAC” it was 1.37 RPM ratio (pull-down/input); in that of “GATGATTGTTCTCCCAGCTGATGAATTACAGCCGTCGAGTAAACAAATTTTCCTAATCTTTCTGTTCAAGCGCCATCTAC”, 0.952 RPM ratio (pull-down/input).

Regarding “GATGATTGTTCTCCCAGCTGATGAATTAGCACATTCGAGTAAACAAATTTTCCTAATCTTTCTGTTCAAGCGCCATCTAC”, the binding signal is 1.03 RPM ratio (pull-down/input). As for “GATGATTGTTCTCCCAGCTGATGAATTCCACTCATCGAGTAAACAAATTTTCCTAATCTTTCTGTTCAAGCGCCATCTAC”, the figure is 0.808 RPM ratio (pull-down/input). As to “GATGATTGTTCTCCCAGCTGATGAATTCCGCTCCTCGAGTAAACAAATTTTCCTAATCTTTCTGTTCAAGCGCCATCTAC”, the binding signal was 0.766 RPM ratio (pull-down/input). In the case of “GATGATTGTTCTCCCAGCTGATGAATTGGCCCGTTCGAGTAAACAAATTTTCCTAATCTTTCTGTTCAAGCGCCATCTAC” it was 0.858 RPM ratio (pull-down/input); in that of “GATGATTGTTCTCCCAGCTGATGAATTCAGGTGGTCGAGTAAACAAATTTTCCTAATCTTTCTGTTCAAGCGCCATCTAC”, 0.776 RPM ratio (pull-down/input); in that of “GATGATTGTTCTCCCAGCTGATGAATTCTTTCTCTCGAGTAAACAAATTTTCCTAATCTTTCTGTTCAAGCGCCATCTAC”, 0.826 RPM ratio (pull-down/input). “GATGATTGTTCTCCCAGCTGATGAATTTGTGGAATCGAGTAAACAAATTTTCCTAATCTTTCTGTTCAAGCGCCATCTAC”: the binding signal is 1.1 RPM ratio (pull-down/input). Turning to “GATGATTGTTCTCCCAGCTGATGAATTGACAACGTCGAGTAAACAAATTTTCCTAATCTTTCTGTTCAAGCGCCATCTAC”, the binding signal is 1.31 RPM ratio (pull-down/input). For “GATGATTGTTCTCCCAGCTGATGAATTTGGCACGTCGAGTAAACAAATTTTCCTAATCTTTCTGTTCAAGCGCCATCTAC”, the binding signal was 0.875 RPM ratio (pull-down/input).

For “GATGATTGTTCTCCCAGCTGATGAATTAATTACGTCGAGTAAACAAATTTTCCTAATCTTTCTGTTCAAGCGCCATCTAC”, the binding signal is 1.22 RPM ratio (pull-down/input). In the case of “GATGATTGTTCTCCCAGCTGATGAATTATGAGGATCGAGTAAACAAATTTTCCTAATCTTTCTGTTCAAGCGCCATCTAC” it was 0.907 RPM ratio (pull-down/input). For “GATGATTGTTCTCCCAGCTGATGAATTTGTGACTTCGAGTAAACAAATTTTCCTAATCTTTCTGTTCAAGCGCCATCTAC”, the binding signal was 1.21 RPM ratio (pull-down/input). In the case of “GATGATTGTTCTCCCAGCTGATGAATTGCATGACTCGAGTAAACAAATTTTCCTAATCTTTCTGTTCAAGCGCCATCTAC” it was 1.02 RPM ratio (pull-down/input); in that of “GATGATTGTTCTCCCAGCTGATGAATTCGCAAAATCGAGTAAACAAATTTTCCTAATCTTTCTGTTCAAGCGCCATCTAC”, 1.05 RPM ratio (pull-down/input); in that of “GATGATTGTTCTCCCAGCTGATGAATTGGAGACGTCGAGTAAACAAATTTTCCTAATCTTTCTGTTCAAGCGCCATCTAC”, 0.824 RPM ratio (pull-down/input).

Regarding “GATGATTGTTCTCCCAGCTGATGAATTCAGGGCTTCGAGTAAACAAATTTTCCTAATCTTTCTGTTCAAGCGCCATCTAC”, the binding signal was 0.881 RPM ratio (pull-down/input). As for “GATGATTGTTCTCCCAGCTGATGAATTCTAGGATTCGAGTAAACAAATTTTCCTAATCTTTCTGTTCAAGCGCCATCTAC”, the figure is 0.75 RPM ratio (pull-down/input). As for “GATGATTGTTCTCCCAGCTGATGAATTCTTCGTTTCGAGTAAACAAATTTTCCTAATCTTTCTGTTCAAGCGCCATCTAC”, the figure is 0.946 RPM ratio (pull-down/input); as for “GATGATTGTTCTCCCAGCTGATGAATTTGCCAACTCGAGTAAACAAATTTTCCTAATCTTTCTGTTCAAGCGCCATCTAC”, 0.884 RPM ratio (pull-down/input). As for “GATGATTGTTCTCCCAGCTGATGAATTTAGTAGTTCGAGTAAACAAATTTTCCTAATCTTTCTGTTCAAGCGCCATCTAC”, the binding signal was 1.03 RPM ratio (pull-down/input). In the case of “GATGATTGTTCTCCCAGCTGATGAATTCAAAAATTCGAGTAAACAAATTTTCCTAATCTTTCTGTTCAAGCGCCATCTAC” it was 1 RPM ratio (pull-down/input); in that of “GATGATTGTTCTCCCAGCTGATGAATTTGGTGCTTCGAGTAAACAAATTTTCCTAATCTTTCTGTTCAAGCGCCATCTAC”, 0.889 RPM ratio (pull-down/input).
